Reference: patent publication US20260217856A1 (MIE UNIVERSITY, published 2026)

B1: MAGE-A4-zG-m5 (other)
chain: QVQLQVQLVQSGAEVKKPGSSVKVSCKASGGTFSSYAISWVRQAPGQGLEWMGGIIPIFGTANYAQKFQGRVTITADKSTSTAYMELSSLRSEDTAVYYCARSPRRAYHDAFDIWGQGTMVTVSSGGGGSGGGGSGGGGSSYELTQPPSMSVAPGKTASITCGGDHIGSKSVHWYQQKPGQAPVLVVYDDSDRPSGIPERFRGRNSGNTARLTISGTQAMDEADYYCLAWDSSTAIFGGGTQLTVLVGQPKANPTVTLFPPSSEELQANKATLVCLISDFYPGAVTVAWKADGSPVKAGVETTKPSKQSNNKYAASSYLSLTPEQWKSHRSYSCQVTHEGSTVEKTVAPTECSARQTRFWVLVVVGGVLACYSLLVTVAFIIFWVRL[about 120 residues left out here]RSQCMWPRETQLLLEVPPSTEDARSCQFPEEERGERSAEEKGRLGDLWV
B2: MAGE-A4-zG-Km6 (other)
chain: QVQLQVQLVQSGAEVKKPGSSVKVSCKASGGTFSSYAISWVRQAPGQGLEWMGGIIPIFGTANYAQKFQGRVTITADKSTSTAYMELSSLRSEDTAVYYCARSPRRAYHDAFDIWGQGTMVTVSSGGGGSGGGGSGGGGSSYELTQPPSMSVAPGKTASITCGGDHIGSKSVHWYQQKPGQAPVLVVYDDSDRPSGIPERFKGSNKGNKATLTISGTQAMDEADYYCLAWDSSTAIFGGGTQLTVLVGQPKANPTVTLFPPSSEELQANKATLVCLISDFYPGAVTVAWKADGSPVKAGVETTKPSKQSNNKYAASSYLSLTPEQWKSHRSYSCQVTHEGSTVEKTVAPTECSARQTRFWVLVVVGGVLACYSLLVTVAFIIFWVRL[about 120 residues left out here]RSQCMWPRETQLLLEVPPSTEDARSCQFPEEERGERSAEEKGRLGDLWV
B3: MAGE-A4-zG-m7 (other)
chain: QVQLQVQLVQSGAEVKKPGSSVKVSCKASGGTFSSYAISWVRQAPGQGLEWMGGIIPIFGTANYAQKFQGRVTITADKSTSTAYMELSSLRSEDTAVYYCARSPRRAYHDAFDIWGQGTMVTVSSGGGGSGGGGSGGGGSSYELTQPPSMSVAPGKTASITCGGDHIGSKSVHWYQQKPGQAPVLVVYDDSDRPSGIPERFRGSNSGNRARLTISGTQAMDEADYYCLAWDSSTAIFGGGTQLTVLVGQPKANPTVTLFPPSSEELQANKATLVCLISDFYPGAVTVAWKADGSPVKAGVETTKPSKQSNNKYAASSYLSLTPEQWKSHRSYSCQVTHEGSTVEKTVAPTECSARQTRFWVLVVVGGVLACYSLLVTVAFIIFWVRL[about 120 residues left out here]RSQCMWPRETQLLLEVPPSTEDARSCQFPEEERGERSAEEKGRLGDLWV
B4: MAGE-A4-zG-Km8 (other)
chain: QVQLQVQLVQSGAEVKKPGSSVKVSCKASGGTFSSYAISWVRQAPGQGLEWMGGIIPIFGTANYAQKFQGRVTITADKSTSTAYMELSSLRSEDTAVYYCARSPRRAYHDAFDIWGQGTMVTVSSGGGGSGGGGSGGGGSSYELTQPPSMSVAPGKTASITCGGDHIGSKSVHWYQQKPGQAPVLVVYDDSDRPSGIPERFSGKNKGNKATLTISGTQAMDEADYYCLAWDSSTAIFGGGTQLTVLVGQPKANPTVTLFPPSSEELQANKATLVCLISDFYPGAVTVAWKADGSPVKAGVETTKPSKQSNNKYAASSYLSLTPEQWKSHRSYSCQVTHEGSTVEKTVAPTECSARQTRFWVLVVVGGVLACYSLLVTVAFIIFWVRL[about 120 residues left out here]RSQCMWPRETQLLLEVPPSTEDARSCQFPEEERGERSAEEKGRLGDLWV
B5: MAGE-A4-zG-m9 (other)
chain: QVQLQVQLVQSGAEVKKPGSSVKVSCKASGGTFSSYAISWVRQAPGQGLEWMGGIIPIFGTANYAQKFQGRVTITADKSTSTAYMELSSLRSEDTAVYYCARSPRRAYHDAFDIWGQGTMVTVSSGGGGSGGGGSGGGGSSYELTQPPSMSVAPGKTASITCGGDHIGSKSVHWYQQKPGQAPVLVVYDDSDRPSGIPERFSGRNSGNRARLTISGTQAMDEADYYCLAWDSSTAIFGGGTQLTVLVGQPKANPTVTLFPPSSEELQANKATLVCLISDFYPGAVTVAWKADGSPVKAGVETTKPSKQSNNKYAASSYLSLTPEQWKSHRSYSCQVTHEGSTVEKTVAPTECSARQTRFWVLVVVGGVLACYSLLVTVAFIIFWVRL[about 120 residues left out here]RSQCMWPRETQLLLEVPPSTEDARSCQFPEEERGERSAEEKGRLGDLWV
B6: MAGE-A4-zG-m10 (other)
chain: QVQLQVQLVQSGAEVKKPGSSVKVSCKASGGTFSSYAISWVRQAPGQGLEWMGGIIPIFGTANYAQKFQGRVTITADKSTSTAYMELSSLRSEDTAVYYCARSPRRAYHDAFDIWGQGTMVTVSSGGGGSGGGGSGGGGSSYELTQPPSMSVAPGKTASITCGGDHIGSKSVHWYQQKPGQAPVLVVYDDSDRPSGIPERFSGSNRGNRARLTISGTQAMDEADYYCLAWDSSTAIFGGGTQLTVLVGQPKANPTVTLFPPSSEELQANKATLVCLISDFYPGAVTVAWKADGSPVKAGVETTKPSKQSNNKYAASSYLSLTPEQWKSHRSYSCQVTHEGSTVEKTVAPTECSARQTRFWVLVVVGGVLACYSLLVTVAFIIFWVRL[about 120 residues left out here]RSQCMWPRETQLLLEVPPSTEDARSCQFPEEERGERSAEEKGRLGDLWV
B7: CD19-28z-m1 (other)
chain: DIQMTQTTSSLSASLGDRVTISCRASQDISKYLNWYQQKPDGTVKLLIYHTSRLHSGVPSRFRGRGRGTRYSLTISNLEQEDIATYFCQQGNTLPYTFGGGTKLEITGGGGSGGGGSGGGGSEVKLQESGPGLVAPSQSLSVTCTVSGVSLPDYGVSWIRQPPRKGLEWLGVIWGSETTYYNSALKSRLTIIKDNSKSQVFLKMNSLQTDDTAIYYCAKHYYYGGSYAMDYWGQGTSVTVSSIEVMYPPPYLDNEKSNGTIIHVKGKHLCPSPLFPGPSKPFWVLVVVGGVLACYSLLVTVAFIIFWVRSKRSRLLHSDYMNMTPRRPGPTRKHYQPYAPPRDFAAYRSL[about 120 residues left out here]
B8: CD19-28z-m2 (other)
chain: DIQMTQTTSSLSASLGDRVTISCRASQDISKYLNWYQQKPDGTVKLLIYHTSRLHSGVPSRFRGRGRGTDYRLTISNLEQEDIATYFCQQGNTLPYTFGGGTKLEITGGGGSGGGGSGGGGSEVKLQESGPGLVAPSQSLSVTCTVSGVSLPDYGVSWIRQPPRKGLEWLGVIWGSETTYYNSALKSRLTIIKDNSKSQVFLKMNSLQTDDTAIYYCAKHYYYGGSYAMDYWGQGTSVTVSSIEVMYPPPYLDNEKSNGTIIHVKGKHLCPSPLFPGPSKPFWVLVVVGGVLACYSLLVTVAFIIFWVRSKRSRLLHSDYMNMTPRRPGPTRKHYQPYAPPRDFAAYRSL[about 120 residues left out here]
B9: CD19-28z-m3 (other)
chain: DIQMTQTTSSLSASLGDRVTISCRASQDISKYLNWYQQKPDGTVKLLIYHTSRLHSGVPSRFRGRGSGTRYRLTISNLEQEDIATYFCQQGNTLPYTFGGGTKLEITGGGGSGGGGSGGGGSEVKLQESGPGLVAPSQSLSVTCTVSGVSLPDYGVSWIRQPPRKGLEWLGVIWGSETTYYNSALKSRLTIIKDNSKSQVFLKMNSLQTDDTAIYYCAKHYYYGGSYAMDYWGQGTSVTVSSIEVMYPPPYLDNEKSNGTIIHVKGKHLCPSPLFPGPSKPFWVLVVVGGVLACYSLLVTVAFIIFWVRSKRSRLLHSDYMNMTPRRPGPTRKHYQPYAPPRDFAAYRSL[about 120 residues left out here]
B10: CD19-28z-m4 (other)
chain: DIQMTQTTSSLSASLGDRVTISCRASQDISKYLNWYQQKPDGTVKLLIYHTSRLHSGVPSRFSGRGRGTRYRLTISNLEQEDIATYFCQQGNTLPYTFGGGTKLEITGGGGSGGGGSGGGGSEVKLQESGPGLVAPSQSLSVTCTVSGVSLPDYGVSWIRQPPRKGLEWLGVIWGSETTYYNSALKSRLTIIKDNSKSQVFLKMNSLQTDDTAIYYCAKHYYYGGSYAMDYWGQGTSVTVSSIEVMYPPPYLDNEKSNGTIIHVKGKHLCPSPLFPGPSKPFWVLVVVGGVLACYSLLVTVAFIIFWVRSKRSRLLHSDYMNMTPRRPGPTRKHYQPYAPPRDFAAYRSL[about 120 residues left out here]
B11: CD19-28z-m7 (other)
chain: DIQMTQTTSSLSASLGDRVTISCRASQDISKYLNWYQQKPDGTVKLLIYHTSRLHSGVPSRFRGRGSGTDYRLTISNLEQEDIATYFCQQGNTLPYTFGGGTKLEITGGGGSGGGGSGGGGSEVKLQESGPGLVAPSQSLSVTCTVSGVSLPDYGVSWIRQPPRKGLEWLGVIWGSETTYYNSALKSRLTIIKDNSKSQVFLKMNSLQTDDTAIYYCAKHYYYGGSYAMDYWGQGTSVTVSSIEVMYPPPYLDNEKSNGTIIHVKGKHLCPSPLFPGPSKPFWVLVVVGGVLACYSLLVTVAFIIFWVRSKRSRLLHSDYMNMTPRRPGPTRKHYQPYAPPRDFAAYRSL[about 120 residues left out here]
B12: CD19-28z-m10 (other)
chain: DIQMTQTTSSLSASLGDRVTISCRASQDISKYLNWYQQKPDGTVKLLIYHTSRLHSGVPSRFRGSGSGTRYRLTISNLEQEDIATYFCQQGNTLPYTFGGGTKLEITGGGGSGGGGSGGGGSEVKLQESGPGLVAPSQSLSVTCTVSGVSLPDYGVSWIRQPPRKGLEWLGVIWGSETTYYNSALKSRLTIIKDNSKSQVFLKMNSLQTDDTAIYYCAKHYYYGGSYAMDYWGQGTSVTVSSIEVMYPPPYLDNEKSNGTIIHVKGKHLCPSPLFPGPSKPFWVLVVVGGVLACYSLLVTVAFIIFWVRSKRSRLLHSDYMNMTPRRPGPTRKHYQPYAPPRDFAAYRSL[about 120 residues left out here]

These binders were tested against complex of a MAGE-A4 derived peptide and HLA-A2 (human) (assay: cell-based or functional assay).

Row | Binder | IFNγ production, co-culture with SK-MEL-37 | cytotoxic activity, effector:target 1:1, SK-MEL-37 target cells | cytotoxic activity, effector:target 3:1, SK-MEL-37 target cells
1 | B1 | 0.43 ratio to WT CAR-T (1.00) | 1.05 ratio to WT CAR-T (1.00) | 1.62 ratio to WT CAR-T (1.00)
2 | B2 | 0.93 ratio to WT CAR-T (1.00) | 1.61 ratio to WT CAR-T (1.00) | 1.52 ratio to WT CAR-T (1.00)
3 | B3 | 0.22 ratio to WT CAR-T (1.00) | 0.99 ratio to WT CAR-T (1.00) | 1.77 ratio to WT CAR-T (1.00)
4 | B4 | 0.91 ratio to WT CAR-T (1.00) | 1.36 ratio to WT CAR-T (1.00) | 1.47 ratio to WT CAR-T (1.00)
5 | B5 | 0.29 ratio to WT CAR-T (1.00) | 1.23 ratio to WT CAR-T (1.00) | 1.61 ratio to WT CAR-T (1.00)
6 | B6 | 0.32 ratio to WT CAR-T (1.00) | 0.99 ratio to WT CAR-T (1.00) | 1.77 ratio to WT CAR-T (1.00)

The binders below were run against T1, CD19 (human, UniProt P15391 20-556) (assay: cell-based or functional assay).
T1 sequence (looked up): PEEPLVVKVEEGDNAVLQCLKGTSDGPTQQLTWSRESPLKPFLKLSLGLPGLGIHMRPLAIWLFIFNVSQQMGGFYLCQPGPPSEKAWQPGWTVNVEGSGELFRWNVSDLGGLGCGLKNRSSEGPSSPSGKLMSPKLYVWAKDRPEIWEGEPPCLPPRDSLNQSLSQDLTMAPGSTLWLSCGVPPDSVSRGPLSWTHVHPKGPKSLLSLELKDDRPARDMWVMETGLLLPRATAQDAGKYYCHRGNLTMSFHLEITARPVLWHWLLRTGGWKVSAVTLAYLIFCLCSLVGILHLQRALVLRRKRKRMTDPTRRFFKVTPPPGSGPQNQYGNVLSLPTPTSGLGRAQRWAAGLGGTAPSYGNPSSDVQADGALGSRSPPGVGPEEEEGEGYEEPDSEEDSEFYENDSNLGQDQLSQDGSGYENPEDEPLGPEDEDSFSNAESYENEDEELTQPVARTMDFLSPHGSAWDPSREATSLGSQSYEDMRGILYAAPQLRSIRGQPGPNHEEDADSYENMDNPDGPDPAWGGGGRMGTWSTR

Row | Binder | IFNγ production, co-culture with Nalm-6 | cytotoxic activity, effector:target 1:1, Nalm-6 target cells | cytotoxic activity, effector:target 3:1, Nalm-6 target cells
7 | B7 | 0.25 ratio to WT CAR-T (1.00) | 1.3 ratio to WT CAR-T (1.00) | 1.03 ratio to WT CAR-T (1.00)
8 | B8 | 0.24 ratio to WT CAR-T (1.00) | 1.19 ratio to WT CAR-T (1.00) | 0.9 ratio to WT CAR-T (1.00)
9 | B9 | 0.26 ratio to WT CAR-T (1.00) | 1.26 ratio to WT CAR-T (1.00) | 0.91 ratio to WT CAR-T (1.00)

Target: T1, CD19
Test: cell-based or functional assay
Remark: another data set of the same source

Row | Binder | IFNγ production, co-culture with Nalm-6 | cytotoxic activity, effector:target 1:1, Nalm-6 target cells | cytotoxic activity, effector:target 3:1, Nalm-6 target cells
10 | B7 | 0.31 ratio to WT CAR-T (1.00) | 1.56 ratio to WT CAR-T (1.00) | 1 ratio to WT CAR-T (1.00)
11 | B9 | 0.27 ratio to WT CAR-T (1.00) | 1.37 ratio to WT CAR-T (1.00) | 1.09 ratio to WT CAR-T (1.00)
12 | B10 | 0.29 ratio to WT CAR-T (1.00) | 1.49 ratio to WT CAR-T (1.00) | 1.17 ratio to WT CAR-T (1.00)

Target: T1, CD19
Test: cell-based or functional assay
Remark: another data set of the same source

Row | Binder | IFNγ production, co-culture with Nalm-6 | cytotoxic activity, effector:target 1:1, Nalm-6 target cells | cytotoxic activity, effector:target 2:1, Nalm-6 target cells
13 | B11 | 0.13 ratio to WT CAR-T (1.00) | 1.11 ratio to WT CAR-T (1.00) | –
14 | B12 | 0.21 ratio to WT CAR-T (1.00) | 0.98 ratio to WT CAR-T (1.00) | 1.59 ratio to WT CAR-T (1.00)
